# Source: PubChem BioAssay AID686978 (National Center for Advancing Translational Sciences (NCATS), 2013)
# About 64,000 (15%) of roughly 420,000 compounds were called active. The shares of active, inactive and inconclusive entries below differ from those in the screen. Calls follow the shape of the dose curve; as a rule, active = well fitted inhibition curve with a large enough effect; inconclusive = small, poorly fitted or top-dose-only effect; inactive = flat fitted curve, though single readings scatter. Potencies of inconclusive entries are left out as doubtful fits.
# Test: qHTS for Inhibitors of human tyrosyl-DNA phosphodiesterase 1 (TDP1): qHTS in cells in absence of CPT; also: nearly all actives have a fitted effect of over 55% in size
# Conditions: DT40 Tdp1-/- hTDP1 cells, no CPT, ATP luminescence, 48 h; activity change, negative = growth inhibition: at 46.2 µM (top of the series) unless noted
# Procedure, shortened: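 Cells were dispensed at 400 per well, compounds added by pin tool, plates incubated ≥48 hr at 37 °C, then CellTiter-Glo added for 30 min at room temperature before luminescence reading. Line: DT40 Tdp1-/- complemented with hTDP1; camptothecin omitted.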
# % is scaled to controls: 0 for no effect and ±100 for the full control effect; potency is read from the fitted curve at half-maximal effect; tags tell the direction and shape of the fitted curve.
Structure (SMILES),Potency,"activity change, negative = growth inhibition"
CCC(=O)N1CCC1(C)C(=O)Nc1ccc2c(c1)CCN2C(C)=O (stereo unspecified),inactive,–
CCOc1ccc(NC(=O)CC2C(=O)N(c3ccc(OCC)cc3)C(=S)N2C2CC2)cc1 (stereo unspecified),"inconclusive [inhibitor, single point]",–
COc1ccc(CCN(C)Cc2ccc(OCc3ccccc3)c(OC)c2)cc1OC,"inconclusive [inhibitor, single point]",–
COCCOC(=O)c1c(C)nc(SCC(=O)Nc2ccc(C)cc2)c(C#N)c1-c1ccco1,"inconclusive [inhibitor, single point]",–
Nc1c(C(=O)Nc2ccccc2)sc2ncc([N+](=O)[O-])cc12,"inconclusive [inhibitor, single point]",–
COc1ccc(S(N)(=O)=O)cc1C(=O)OCC(=O)NC(C)(C#N)C1CC1 (stereo unspecified),inactive,–
Cc1ccc2c(c1)c1c(n2CC(O)Cn2nc(C)c(Br)c2C)CCCC1 (stereo unspecified),active: 16.4 µM,–
COc1ccc(CCNC(=O)CCn2c(=O)c3ccccc3n(Cc3c(C)cc(C)cc3C)c2=O)cc1OC,inactive,–
O=C(NCCOc1ccccc1)c1cccc(S(=O)(=O)N2CCN(Cc3ccccc3)CC2)c1,"inconclusive [inhibitor, single point]",–
CSc1ncccc1C(=O)N1CCCC(Nc2ccc(C)c(C)c2)C1 (stereo unspecified),inactive,–
Cc1ccc(S(=O)(=O)N2CCN(C(=O)c3ccc(-n4cncn4)c([N+](=O)[O-])c3)CC2)c(C)c1,"inconclusive [inhibitor, single point]",–
COc1ccc(NC(=S)NC(NC(=O)c2ccccc2Cl)C(Cl)(Cl)Cl)c([N+](=O)[O-])c1 (stereo unspecified),"inconclusive [inhibitor, single point]",–
Cc1csc2nc(CCNS(=O)(=O)c3ccccc3)cn12,inactive,–
O=C(CCN1C(=O)/C(=C/c2ccccc2F)SC1=S)NCCCn1ccnc1,inactive,–
CN(C)c1ccc(C(CNC(=O)c2ccccc2F)N2CCc3ccccc32)cc1 (stereo unspecified),"inconclusive [inhibitor, single point]",–
CCCOc1ccc(C(=O)NNC(=O)CCNC(=O)c2ccco2)cc1OC,inactive,–
C=CCNC(=O)CN1C(=O)C2C3c4ccccc4C(c4ccccc43)C2C1=O (stereo unspecified),"inconclusive [inhibitor, single point]",–
Cc1cccc2sc(NC(=O)CN3C(=O)c4ccccc4C3=O)nc12,–,inconclusive: -31% [inhibitor]
CN(C)N1C(N)=C(C#N)C(c2ccc(F)cc2)C2=C1CC(C)(C)CC2=O (stereo unspecified),inactive,–
CCN(CC)c1ccc(/C=N/NC(=O)c2c(-c3ccccc3)noc2C)cc1,"inconclusive [inhibitor, single point]",–
COc1ccccc1NC(=O)c1ccc(NC2=NC3CS(=O)(=O)CC3S2)cc1 (stereo unspecified),inactive,–
CCn1nc(C)c(CNC(=O)CCc2nnc(-c3ccc(C(C)=O)s3)o2)c1C,inactive,–
N#Cc1ccccc1S(=O)(=O)N1CCCC(c2nc3c(nnn3Cc3cccc(Cl)c3)c(=O)[nH]2)C1 (stereo unspecified),"inconclusive [inhibitor, single point]",–
CC(C)c1ccc2[nH]c(O)c(N=NC(=O)c3cccc(S(=O)(=O)Nc4cccc(Cl)c4)c3)c2c1,"inconclusive [inhibitor, partial curve]",–

Structure (SMILES),Potency,"activity change, negative = growth inhibition"
CCOc1ccccc1NC(=O)CN1C(=O)C(C)SC(C)C1=O (stereo unspecified),inactive,–
COc1cccc(CNC(=O)c2ccc3c(c2)N(Cc2ccc(C(F)(F)F)cc2)C(=O)c2ccccc2S3)c1OC,"inconclusive [inhibitor, single point]",–
COc1ccccc1CCNc1ncnc2sc(C(=O)N3CCCC3)c(C)c12,"inconclusive [inhibitor, partial curve, poor fit]",–
O=C1C2C3C=CC(C3)C2C(=O)N1c1ccc2c(c1)CCC2 (stereo unspecified),inactive,–
COc1cc(CNC2CCCC2)cc(Cl)c1OCc1ccccc1Cl,active: 23.1 µM,–
CN(C)C(=O)c1ccc(NC(=O)COC(=O)C2=COCCO2)cc1,inactive,–
CCCCNc1nc2c(S(=O)(=O)c3ccc(Cl)cc3)nnn2c2ccsc12,"inconclusive [inhibitor, single point]",–
Cc1nn(-c2ccccc2)c2c1N(CCCC(=O)NCc1ccc(Cl)cc1)C(=O)CS2,active: 23.1 µM,–
CCN(C(=O)CSc1nnc(-c2ccco2)n1Cc1ccccc1)C1CCS(=O)(=O)C1 (stereo unspecified),"inconclusive [inhibitor, single point]",–
Cc1ccc(-n2ncc(C(=O)N3CCN(C(=O)c4ccco4)CC3)c2C2CCN(C(=O)OC(C)(C)C)CC2)cc1C,inactive,–
Cc1c(C(=O)NNc2cc(=O)n(C)c(=O)n2C)cccc1[N+](=O)[O-],inactive,–
O=C(CNC(=O)c1cccs1)Nc1ccc(N2CCOCC2)cc1,inactive,–
Cc1nc2ccccc2c(=O)n1/N=C/c1ccc2ccccc2c1O,"inconclusive [inhibitor, partial curve]",–
Cc1ccc(-c2cc(C(F)(F)F)nc(SCC(=O)c3cccc([N+](=O)[O-])c3)n2)cc1,"inconclusive [inhibitor, single point]",–
Cc1ccc(CN(Cc2ccco2)C(=O)COc2ccc(Cl)cc2Cl)cc1,active: 18.4 µM,–
COc1cc(C)c(CN2CCC(Cc3ccccc3)CC2)cc1C,"inconclusive [inhibitor, single point]",–
CCOc1ccc(Nc2ncnc3c2cnn3C)cc1,"inconclusive [inhibitor, single point]",–
CCOC(=O)C1(Cc2ccccc2)CCN(Cc2cccn2-c2cccnc2)CC1,"inconclusive [inhibitor, single point]",–
CN1CCN(C(=O)/C=C/c2ccc3c(c2)OCO3)CC1,inactive,–
[O-][n+]1c2ccccc2c2n1CCN=C2c1ccc(Cl)cc1,inactive,–
CN(C(=O)CSc1ncnc2sc3c(c12)CCC3)C1CCS(=O)(=O)C1 (stereo unspecified),inactive,–
CCOC(=O)c1cc(-c2ccc(F)cc2)n(CC(=O)NCc2ccc(OC)cc2)c1C,"inconclusive [inhibitor, partial curve, poor fit]",–
COc1ccc(/C=N/NC(=O)c2ccncc2)cc1COc1ccc(NC(C)=O)cc1,active: 8.2 µM,–
COc1ccccc1CCc1nnc(CCC(=O)N(C)Cc2cccc3ncccc23)o1,"inconclusive [inhibitor, partial curve]",–

Structure (SMILES),Potency,"activity change, negative = growth inhibition"
CC(=O)C1=C(O)CCCC1=NCc1nc2ccccc2[nH]1,"inconclusive [inhibitor, single point]",–
Cc1ccc(NS(=O)(=O)c2cc(C(=O)NCCSc3ccc(C)cc3)ccc2C)cc1,"inconclusive [inhibitor, single point]",–
COc1ccc2ccccc2c1C1CC(=O)N2CN(C3CCCCC3)CSC2=C1C#N (stereo unspecified),inactive,–
Cc1ccn2c(=O)nc(SCC(=O)c3ccc(Cl)cc3)nc2c1,"inconclusive [inhibitor, single point]",–
CCNC1CCC(Nc2ccnc3cc(Cl)ccc23)CC1 (stereo unspecified),active: 9.2 µM,–
CC1(C)NC(=O)N(CCCCSc2ccc(Cl)cc2)C1=O,"inconclusive [inhibitor, single point]",–
O=C(NCc1ccc(Cl)cc1)C1CCN(S(=O)(=O)c2ccc3c(c2)CCCN3C(=O)C2CCC2)CC1,active: 20.6 µM,–
C=CCOC(=O)C1=C(C)NC(C)=C(C(=O)OCC=C)C1/C=C/c1ccccc1,"inconclusive [inhibitor, single point]",–
COc1ccc(CNC(=O)CNC(c2ccccc2)c2ccccc2)cc1OC,active: 7.31 µM,–
CC(C)CC(NC(=O)CCl)c1ccccc1 (stereo unspecified),"inconclusive [inhibitor, single point]",–
O=C(CSc1nc(O)c(C/C=C/c2ccccc2)c(=O)[nH]1)Nc1cccc(F)c1,inactive,–
Cc1onc(-c2ccccc2Cl)c1C(=O)NCCN1CCOCC1,"inconclusive [inhibitor, full curve]",–
COc1cc(NC(=O)c2ccccc2)c(OC)cc1NC(=O)CN1CCOCC1,–,inconclusive: -30.2% [inhibitor]
CCOc1cc(/C=C2/NC(=S)NC2=O)ccc1OCc1ccc([N+](=O)[O-])cc1,–,inconclusive: -33.8% [inhibitor]
CCS(=O)(=O)c1ccc2oc(SCC(=O)NC34CC5CC(CC(C5)C3)C4)nc2c1,active: 13 µM,–
O=C(CN(Cc1ccccc1)S(=O)(=O)c1ccc(S(=O)(=O)N2CCOCC2)cc1)Nc1ccccc1,inactive,–
CC(C)(C)c1ccc(S(=O)(=O)N2CCN(C(=O)c3cc(-c4ccc(Br)cc4)n[nH]3)CC2)cc1,"inconclusive [inhibitor, single point]",–
O=C(NCC1CCCO1)c1cc2c([nH]c3ccccc32)c(-c2ccc(F)cc2)n1 (stereo unspecified),active: 1.84 µM,–
CCN(Cc1cccc(S(=O)(=O)O)c1)c1ccc(C(=C2C=CC(=[N+](CC)Cc3cccc(S(=O)(=O)O)c3)C=C2)c2ccccc2S(=O)(=O)[O-])cc1,active: 12.6 µM,–
COc1ccc(S(=O)(=O)N(C)C[C@H]2Oc3ccc(NC(=O)NC4CCCCC4)cc3C(=O)N([C@H](C)CO)C[C@@H]2C)cc1,"inconclusive [inhibitor, single point]",–
COc1cccc(CNC(=O)c2nnc(Cc3ccc(Cl)cc3)o2)c1,inactive,–
COc1ccc(N2CCN(S(=O)(=O)c3ccc4c(c3)N(C(C)=O)CCO4)CC2)cc1,inactive,–
CC(SCc1ccccc1)C(=O)Nc1ccccc1-c1ccccc1 (stereo unspecified),"inconclusive [inhibitor, single point]",–
